Test results published in the supplement of paper PMC7125110.
± gives the standard error. Variants at the floor of the assay are shown more often than the library holds them.

B1: glmS ribozyme (parent)
chain: AUAAAAGCGCCAGAACUACAGAAAUGUAGUUGACGAGGAGGAGGUUUAUCGAAUUUUCGGCGGAUGCCUCCAAA

Experiments:
Settings in all cases: with glucosamine-6-phosphate
[1] = variants of: B1; assay: self-cleavage kobs at 640 uM GlcN6P; higher = faster cleavage; RNA array
Procedure, shortened: (§1)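 E. coli RNA polymerase transcribed barcoded ribozyme variants in situ on sequenced MiSeq chips, which were tracked via a hybridised Cy3 probe at 37 °C. Tiles were imaged over ~14 h after glucosamine-6-phosphate (40 μM to 10 mM) in HEPES/KCl/Mg(OAc)2 buffer was flowed in. Normalised per-tile medians were fit to one- or two-exponential decays for kobs, and kcat and KM came from weighted Michaelis–Menten fits.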

[2] = variants of: B1; assay: self-cleavage kobs at 160 uM GlcN6P; higher = faster cleavage; RNA array
Procedure, shortened: as §1

[3] = variants of: B1; assay: self-cleavage kobs at 2500 uM GlcN6P; higher = faster cleavage; RNA array
Procedure, shortened: as §1

[4] = variants of: B1; assay: self-cleavage kobs at 10000 uM GlcN6P; higher = faster cleavage; RNA array
Procedure, shortened: as §1

Row | Variant | self-cleavage kobs at 640 uM GlcN6P [1] [s⁻¹] | self-cleavage kobs at 160 uM GlcN6P [2] [s⁻¹] | self-cleavage kobs at 2500 uM GlcN6P [3] [s⁻¹] | self-cleavage kobs at 10000 uM GlcN6P [4] [s⁻¹]
1 | G51U A52U U65G | < 1e-05 | < 1e-05 | < 1e-05 | –
2 | G51U C61G C71G | 0.000494 ± 0.00014 | 0.000101 ± 2.2e-05 | – | –
3 | G51U U56A G63U | < 1e-05 | – | < 1e-05 | –
4 | A52G G63U | < 1e-05 | – | – | –
5 | A52G U55G | 0.000252 ± 2.5e-05 | 8.73e-05 ± 8.7e-06 | – | –
6 | A52U U56G | 2.83e-05 ± 1.1e-05 | – | 5.36e-05 ± 9.7e-06 | 0.000122 ± 2.5e-05
7 | A53C G66U | 0.000128 ± 3.6e-05 | 3.36e-05 ± 1.5e-05 | 0.000344 ± 8.3e-05 | 0.00039 ± 7.6e-05
8 | A53C U55C | 0.00052 ± 9.2e-05 | 0.00015 ± 4e-05 | 0.00148 ± 0.00029 | 0.00116 ± 0.00017
9 | A53U C58G C68U | 9.02e-05 ± 3.1e-05 | – | – | –
10 | U54A C61G C71G | 7.31e-05 ± 1.7e-05 | – | 0.000139 ± 4.6e-05 | –
11 | U54C C71G | 0.000424 ± 0.00013 | 0.000132 ± 5.7e-05 | 0.000351 ± 0.00011 | 0.00091 ± 0.00016
12 | U55A U56A | 0.00306 ± 0.00092 | – | 0.00346 ± 0.0013 | –
13 | U55C C71A | 5.32e-05 ± 6.9e-06 | – | 0.000174 ± 1.9e-05 | 0.000283 ± 2.2e-05
14 | U55C G62U | < 1e-05 | < 1e-05 | < 1e-05 | < 1e-05
15 | U55G G62C | < 1e-05 | < 1e-05 | < 1e-05 | < 1e-05
16 | U55G G66C C70U | 0.000456 ± 0.0001 | – | 0.000343 ± 8.7e-05 | –
17 | U56C G60U C70G | < 1e-05 | – | < 1e-05 | < 1e-05
18 | U57C G59A | < 1e-05 | – | < 1e-05 | < 1e-05
19 | U57G C61A G62C A64U | < 1e-05 | – | < 1e-05 | < 1e-05
20 | U57G C67A U69G | 4.87e-05 ± 2.3e-05 | – | – | –
21 | U57G C68A | 3.37e-05 ± 1.4e-05 | – | – | –
22 | C58A C70U | 6.79e-05 ± 8.4e-06 | 3.94e-05 ± 9.4e-06 | 0.000143 ± 1.3e-05 | 0.000145 ± 1.7e-05
23 | C58G G62A G63C C71A | 5.92e-05 ± 2.4e-05 | – | – | –
